90 molecules from PMC4336329 (PLoS ONE, 2015) can be followed below.

Out of some 310,000 compounds screened, about 2,200 (0.71%) showed an effect of 50% or more. Effects have a minus sign here. The list shows a part of the results.

Chain of human ether-à-go-go-related gene (hERG) potassium channel (Q12809 whole entry, looked up): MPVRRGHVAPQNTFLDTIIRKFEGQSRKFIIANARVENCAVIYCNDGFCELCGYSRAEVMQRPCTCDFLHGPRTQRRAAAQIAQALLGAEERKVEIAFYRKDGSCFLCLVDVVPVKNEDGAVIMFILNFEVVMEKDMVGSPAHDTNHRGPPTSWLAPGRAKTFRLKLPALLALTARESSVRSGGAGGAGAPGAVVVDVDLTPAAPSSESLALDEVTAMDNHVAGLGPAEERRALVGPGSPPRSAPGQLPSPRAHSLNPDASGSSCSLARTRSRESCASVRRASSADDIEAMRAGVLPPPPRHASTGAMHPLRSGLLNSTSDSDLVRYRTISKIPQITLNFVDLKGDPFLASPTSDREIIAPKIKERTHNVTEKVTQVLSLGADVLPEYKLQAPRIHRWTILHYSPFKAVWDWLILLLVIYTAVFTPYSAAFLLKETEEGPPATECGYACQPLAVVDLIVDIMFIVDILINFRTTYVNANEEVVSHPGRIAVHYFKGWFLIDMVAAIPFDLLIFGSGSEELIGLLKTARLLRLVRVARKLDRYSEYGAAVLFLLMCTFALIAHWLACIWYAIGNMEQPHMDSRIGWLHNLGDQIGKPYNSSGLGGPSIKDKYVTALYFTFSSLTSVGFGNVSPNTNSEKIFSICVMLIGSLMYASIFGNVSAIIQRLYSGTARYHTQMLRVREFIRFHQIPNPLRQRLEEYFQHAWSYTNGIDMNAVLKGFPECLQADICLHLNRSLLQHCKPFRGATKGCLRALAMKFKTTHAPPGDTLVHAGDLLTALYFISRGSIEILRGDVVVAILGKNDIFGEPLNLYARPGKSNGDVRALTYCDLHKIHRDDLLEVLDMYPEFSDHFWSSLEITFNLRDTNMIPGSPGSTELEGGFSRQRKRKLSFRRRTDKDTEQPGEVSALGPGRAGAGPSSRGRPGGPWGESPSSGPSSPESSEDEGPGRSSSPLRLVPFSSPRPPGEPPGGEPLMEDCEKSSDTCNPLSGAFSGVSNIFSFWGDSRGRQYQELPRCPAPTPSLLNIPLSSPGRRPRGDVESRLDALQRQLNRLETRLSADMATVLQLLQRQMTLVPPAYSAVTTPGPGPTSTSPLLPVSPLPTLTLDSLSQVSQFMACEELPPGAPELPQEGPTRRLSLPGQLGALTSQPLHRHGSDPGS

This test addresses human ether-à-go-go-related gene (hERG) potassium channel (human, UniProt Q12809). The test can be described thus: primary screen, population patch clamp on CHO cells stably expressing hERG.
As for `CC1CCCCN1S(=O)(=O)c1ccc(S(=O)(=O)NCCc2ccncc2)cc1` (stereo not drawn), the “hERG current change (%, negative = inhibition) at 1uM” value was -4.19%.
For `NC(=O)c1cc(NC(=O)CCCc2nc3ccccc3s2)cc(C(N)=O)c1` the value was 12.4%.
With `COc1cccc(CC(=O)OCC(=O)NCC(=O)Nc2cccc(C)c2C)c1`, the “hERG current change (%, negative = inhibition) at 1uM” value is reported as 13.9%.
In the case of `O=C1NC(=O)/C(=C/c2ccccc2Oc2ccc(Cl)cc2)S1`, the “hERG current change (%, negative = inhibition) at 1uM” value is listed as 3.77%.
As to `CCc1ccc(NC(=O)CSc2ccc(-c3sc(C)nc3C)nn2)cc1`, the “hERG current change (%, negative = inhibition) at 1uM” value worked out at 12.7%.
The value for `O=C(c1ccc(-c2ccccc2)cc1)C1CCCN(C(=O)c2ccncc2)C1` (stereo not drawn) was 5.72%.
For `Cc1ccsc1C(=O)N/N=C/c1ccc([N+](=O)[O-])cc1` the value was 10.4%; for `COc1ccc(C(C)=O)cc1CSc1ccc(S(=O)(=O)N2CCOCC2)cn1`, 1.53%; for `Nc1nc(NCc2ccco2)nc(NC2CCCCC2)c1[N+](=O)[O-]`, 13.7%.
The value for `CCC(CC)c1nnc(NC(=O)C2CCN(C(=O)c3ccco3)CC2)s1` was 18%.
As to `Cc1cc(CN(C)C(=O)c2cc(COc3ccc(F)cc3Cl)on2)n[nH]1`, the “hERG current change (%, negative = inhibition) at 1uM” value came out at 5.99%.
For `Cc1ccc(Sc2ncnc(N)c2[N+](=O)[O-])cc1` the value was 5.98%; for `COc1cccc(NC(=O)N2CCCC2C(=O)NC23CC4CC(CC(C4)C2)C3)c1` (stereo not drawn), 16.3%.
For `CCOc1ccc(OC(=O)NC(c2ccccc2)C(Cl)(Cl)Cl)cc1` (stereo not drawn), the “hERG current change (%, negative = inhibition) at 1uM” value came to 1.58%.
In the case of `CCCOC(=O)c1ccc(NC(=O)c2cc(=O)[nH]c3ccccc23)cc1`, the “hERG current change (%, negative = inhibition) at 1uM” value is recorded as 9.89%.
For `Cc1ccc(C)c(NC(=O)Cc2coc3cc4c(cc23)CCC4)c1` the value was 5.49%; for `O=C(NCc1ccco1)/C(=C/C=C/c1ccccc1)NC(=O)c1ccco1`, 2.05%.
The value for `Cn1cnnc1SCC(=O)NNC(=O)c1ccc(Cl)cc1` was 10.9%.
The value for `CN1C2CCC1CC(NC(=O)c1cc(S(=O)(=O)N(C)C)c(Cl)cc1Cl)C2` (stereo not drawn) was 8.12%; that for `CC1(C)C(=O)OC(c2cccc([N+](=O)[O-])c2)C2(CCCCC2)C1=O` (stereo not drawn) was 10.7%.
Take `CS/C(N)=N/C(=S)Nc1cccc(Cl)c1`: the “hERG current change (%, negative = inhibition) at 1uM” value was found to be 2.7%.
Consider `O=C1/C(=C/c2ccccn2)SC(=S)N1c1ccc(O)cc1`, for which the “hERG current change (%, negative = inhibition) at 1uM” value is recorded as 1.74%.
For `CN1C(=O)NC(=O)C2(Cc3ccccc3N3CCOCC32)C1=O` (stereo not drawn) the value was 22.9%; for `Cc1cc(C)c2cc(C#N)c(N3CCCN(C(=O)c4cnccn4)CC3)nc2c1`, 3.02%.
The value for `CC(NC(=O)COc1cccc(Br)c1)C(=O)O` (stereo not drawn) was 8.08%; that for `O=C(CC(C(=O)O)c1ccc(Cl)cc1)c1ccc(Br)cc1` (stereo not drawn) was 12.5%; that for `CCCn1c(SCC(N)=O)nc2c(c1=O)C1(CCCC1)Cc1ccccc1-2` was 11.4%.
For `COC(=O)C1=C(N)N(c2ccc(F)cc2)C2=C(C(=O)CCC2)C1c1ccc2c(c1)OCO2` (stereo not drawn) the value was -5.63%; for `COc1cc(NC2c3ncccc3C(=O)N2Cc2ccco2)cc(OC)c1OC` (stereo not drawn), 15.3%; for `O=C(CSc1n[nH]c(=O)[nH]c1=O)Nc1cccc(S(=O)(=O)N2CCOCC2)c1`, 13.7%.
In the case of `COc1ccc(NC(=O)c2cc(C)n(Cc3cccs3)c2C)cc1`, the “hERG current change (%, negative = inhibition) at 1uM” value stood at 14.5%.
For `Cc1ccc(C)c2c1cc(C)c1nnc(SCc3ccccn3)n12`, the “hERG current change (%, negative = inhibition) at 1uM” value was determined as 12.3%.
The value for `O=S(=O)(c1cccc(F)c1)N1CCN(C(=S)NCc2ccccc2)CC1` was 9.9%; that for `COc1ccc(CC(=O)Nc2c(C(=O)N3CCN(c4ccccc4OC)CC3)oc3ccccc23)cc1OC` was 9.46%.
The value for `Cc1cccn2cc(-c3ccccc3)nc12` was 3.89%; that for `COc1ccc(OC)c(NC(=O)c2ccc(-c3csc(C)n3)cc2)c1` was 19.2%; that for `O=C1CCCC2=C1C(c1cccs1)n1nc(SCc3ccccc3)nc1N2` (stereo not drawn) was -2.63%.
The value for `COc1cccc(NC(=O)Nc2nnc(N3C(C)CCCC3C)s2)c1` (stereo not drawn) was 13.7%.
With `COC(=O)[C@@H](NC(=O)NCc1ccco1)C(C)C`, the “hERG current change (%, negative = inhibition) at 1uM” value is on record as 6.35%.
The value for `O=C(CCCn1c(=O)c2sccc2n(CC(=O)OCc2ccccc2)c1=O)NCc1ccco1` was 3.46%; that for `Cc1nnc(NC(=O)C2CCN(S(=O)(=O)c3ccc(Cl)cc3)CC2)s1` was 12.3%; that for `COC(=O)Cc1ccc(NC(=S)NN2CCOCC2)cc1` was 9.36%.
The value for `CC1(C)CC(=O)CC(C)(C)N1OC(=O)c1ccccn1` was 7.83%; that for `O=C(c1cccnc1)C1CCCN(Cc2nc(-c3cnccn3)no2)C1` (stereo not drawn) was -7.93%.
As for `COc1cccc(/C=N/NC(=O)CSc2ccccc2C)c1OC`, the “hERG current change (%, negative = inhibition) at 1uM” value turned out to be 13.6%.
The value for `CCOC(=O)Cn1c(C)nc2c(C(=O)OCC)sc(C)c2c1=O` was 1.88%.
For `O=C(NC(Cc1c[nH]c2ccccc12)C(=O)Nc1ccc(F)cc1)c1cccs1` (stereo not drawn) the value was -1.38%.
For `Cc1c(C(N)=O)sc2ncn(CC(=O)N3CCC(C)CC3)c(=O)c12` the value was -4.75%.
Turning to `COc1ccc(Cl)cc1C(=O)NNC(=O)c1nc2nc(C)cc(C)n2n1`, the “hERG current change (%, negative = inhibition) at 1uM” value is recorded as 8.9%.
The value for `O=C(CCS(=O)(=O)c1ccc(Cl)cc1)NCCN1C(=O)S/C(=C\c2ccccc2F)C1=O` was 15.6%; that for `CC(C)C(=O)Nc1cccc(C(=O)Nc2ccccc2C(=O)O)c1` was 5.46%.
The value for `COc1ccc(CCNC(=O)CSCc2ccc([N+](=O)[O-])cc2)cc1` was -7.02%; that for `CCN(CC(=O)c1c(N)n(C)c(=O)n(C)c1=O)c1cccc2ccccc12` was 13.7%; that for `O=C(Nc1ccc(F)cc1F)C1CCCN1S(=O)(=O)c1cccc2nsnc12` (stereo not drawn) was 2.28%.
For `Cn1cccc1Cc1nnc(SCC(=O)Nc2ccccc2F)n1CCc1ccccc1` the value was -2.37%; for `O=C(Nc1ccc(Cl)c(Cl)c1)Nc1ccon1`, 14.1%.
In the case of `CCOc1cc(-c2nnn(CC(=O)N3CCCCC3)n2)ccc1OC`, the “hERG current change (%, negative = inhibition) at 1uM” value is recorded as 14.3%.
Regarding `CCCS(=O)(=O)N1CCCC(C(=O)NCCN2CCCCC2C)C1` (stereo not drawn), the “hERG current change (%, negative = inhibition) at 1uM” value worked out at 11.9%.
For `CCOC(=O)c1sc(=S)n(CC)c1NC(=O)c1ccccc1` the value was 15.7%; for `CC(C)COC(=O)Nc1ccccc1C(=O)N1CCOCC1`, 11.7%.
For `COc1ccccc1OCC(=O)n1cc(C(=O)c2cc(Cl)cc(Cl)c2O)cn1` the value was 11.1%; for `CC(C)n1c(SCC(=O)N2CCCC2)nc2c1c(=O)n(C)c(=O)n2C`, 4.31%.
Turning to `CC1=NN(C(=O)CCc2ccccc2)C(c2ccccc2)C1` (stereo not drawn), the “hERG current change (%, negative = inhibition) at 1uM” value is on record as 8.42%.
Regarding `CCCNC(=O)N1CCN(S(C)(=O)=O)CC1`, the “hERG current change (%, negative = inhibition) at 1uM” value amounted to 14.5%.
For `CN(C)C(=O)Nc1ccccc1` the value was 18.6%; for `CCC(C)NC(=O)C(NS(=O)(=O)c1cccc2nsnc12)c1ccccc1` (stereo not drawn), 8.9%.
For `Cc1cc(C)cc(COn2ccnc2)c1` the value was 2.71%; for `COc1cc2ccccc2cc1C(=O)Nc1ccncc1`, -17.9%; for `CCOC(=O)c1sc(NC(=O)CSc2nnc(Cc3ccccc3)o2)c(C(=O)OCC)c1C`, 16.9%.
As for `CCNC(=O)N1CCNC(=O)C1CC(=O)Nc1ccc(C(=O)OCC)cc1` (stereo not drawn), the “hERG current change (%, negative = inhibition) at 1uM” value amounted to 4.95%.
The value for `C=CCc1cccc(OC)c1OCCOCCNCCO.O=C(O)C(=O)O` was 11.1%; that for `O=C(N/N=C/c1ccc(N2CCOCC2)o1)c1ccccc1[N+](=O)[O-]` was 12.8%.
For `CC1(C)CC(NC(=O)c2cccc([N+](=O)[O-])c2)CC(C)(C)N1` the value was 7.13%; for `CC1(C)CN(S(=O)(=O)OCC(Cl)(Cl)Cl)C(=O)N1`, 5.16%; for `CC(C)(C)c1ccc(OC(=O)c2ccc(-n3cncn3)nc2)cc1`, 10.9%.
The value for `O=C(CN(Cc1ccc(Br)cc1)S(=O)(=O)c1ccccc1)NCc1ccncc1` was -33.3%; that for `Cc1cc(C(=O)Nc2ccccc2[N+](=O)[O-])cs1` was -14.8%; that for `CNC(=O)c1sc(-c2ccccc2)nc1C` was 5.9%.
As to `COc1ccc(NC(=S)N(Cc2ccc(C(=O)O)cc2)Cc2ccc(OC)c(OC)c2)cc1`, the “hERG current change (%, negative = inhibition) at 1uM” value was 22.5%.
For `CC(C)(C)OC(=O)NCCc1nnc(SCC(=O)c2ccc(Cl)cc2)o1` the value was 13.2%.
For `O=C(Nc1ccc(C(=O)Oc2ccccc2)c(O)c1)c1ccccc1` the value was 2.1%.
On to `Cc1cc(F)ccc1N1CCC(N2CCN(CCC(C)C)C(CCO)C2)CC1` (stereo not drawn), for which the “hERG current change (%, negative = inhibition) at 1uM” value is recorded as -29.7%.
For `O=C1C2ON(c3ccccc3)C(c3cccnc3)C2C(=O)N1c1ccccc1` (stereo not drawn), the “hERG current change (%, negative = inhibition) at 1uM” value is recorded as 10.6%.
Turning to `CC(=O)N(Cc1cccc(Br)c1)c1ccc(N2CCOCC2)c(Cl)c1`, the “hERG current change (%, negative = inhibition) at 1uM” value was 11%.
For `CC(C)Nc1nc(-c2cccnc2)nc(-c2ccccc2)c1C#N` the value was 0.157%; for `CCc1ccc(OCC(=O)NCCN(C)C)c(Br)c1`, -24.2%.
Regarding `CN(Cc1cccc(F)c1)C(=O)Cc1ccc(S(=O)(=O)N2CCOCC2)s1`, the “hERG current change (%, negative = inhibition) at 1uM” value is recorded as -5.45%.
For `CC(=O)c1ccccc1NC(=O)COC(=O)c1cc2ccccc2[nH]1` the value was 12.4%; for `COc1ccc(CNC(=O)C2CC(c3ccc(F)cc3)=NO2)cc1` (stereo not drawn), -4.75%.
Consider `Cn1c(N)c(C(=O)COC(=O)CCc2c[nH]c3ccccc23)c(=O)n(C)c1=O`, for which the “hERG current change (%, negative = inhibition) at 1uM” value was determined as 11.1%.
